This passage reports IFI results from ChEMBL document CHEMBL1157539, “Thousands of chemical starting points for antimalarial lead identification” (Nature, 2010).

Structures are written as SMILES. Over roughly 13,000 compounds, “IFI” has its median near 4; the highest 2% begin near 17. This is one part of the list.

The assay can be described thus: GSK_TCMDC: Inhibition Frequency Index (IFI). The number of non-kinase HTS assays where a compound showed > 50 % inhibition, expressed as a percentage of the number of such assays in which the compound was tested (-0 is zero). The class given is functional.
Molecule `COc1cc(C(=O)Nc2cccc(-c3cn4ccc(C)cc4n3)c2)cc(OC)c1OC` yielded an IFI of 3.13%.
On to `c1ccc(-c2cc(NCCCn3ccnc3)nc(-c3cccnc3)n2)cc1`, for which the IFI worked out at 2.17%.
Turning to `Cc1cc(F)ccc1C1CCN(CCCCNC(=O)c2ccc(NC(=O)c3ccc(Cl)cc3)cc2)CC1`, the IFI came out at 5.31%.
The same measure for `CCn1c(-c2nonc2N)nc2cnc(Oc3cccc(NC(=O)c4ccc(OCCN(C(C)C)C(C)C)cc4)c3)cc21`: 5.66%; for `CCCc1cc(NCC)nc(Nc2ccc(C)cc2)n1`: 7.58%.
In the case of `O=C(Nc1cccc(CN2CCCN(Cc3cccc(O)c3)CC2)c1)c1cc2ccccc2s1`, the IFI stood at 8.46%.
For the molecule `CC1CCC2(CC1)NC(N)=NC(=N)N2OCCCCCCCCO` (stereo unspecified), the IFI was 4.23%.
`CN(C)CCCNC(=O)c1ccccc1Sc1ccccc1C#N` came in with an IFI of 0.73%.
The same measure for `Cc1cc(=O)c(-c2ccc(Oc3cccc(OC(F)(F)F)c3)cc2)c(C)[nH]1`: 3.76%; for `CCCCCCC1(C)N=C(N)N=C(N)C1c1ccc(Cl)c(Cl)c1` (stereo unspecified): 2.78%.
`Cc1cccc(/C=C/C(=O)NC2CCC(N3CCC(c4ccccc4C)CC3)CC2)c1` (stereo unspecified) had an IFI of 8.62%.
Take `Cn1cccc1C(=O)C(=O)Nc1cccc(-c2ccc(-c3nc4cc(C(F)(F)F)ccc4[nH]3)cc2)c1`: the IFI was 4.59%.
In turn, `COc1ccc(F)cc1-c1ccc(C(=O)N2CCCN(c3ccc(C#N)cn3)CC2)cc1` returned an IFI of 5.41%.
`CCCN(CC)CCOC(=O)c1ccccc1` returned an IFI of -0%.
The molecule `N#Cc1ccc(N(CCOc2ccc3c(c2)CCC(=O)N3)Cc2ccccc2C(F)(F)F)cc1C(F)(F)F` returned an IFI of 3.08%.
The molecule `Clc1ccc2c(N3CCCNCC3)ccnc2c1` yielded an IFI of 2.08%.
With `Cc1ccc2nc(-c3ccc(/C=C/C(=O)NC4CCN(Cc5ccccc5)CC4)cc3)[nH]c2c1C`, the IFI amounted to 1.48%.
`Cc1cc(NCC2CCN(CC3CCCCC3)C2)nc(Nc2ccc(Cl)cc2)n1` (stereo unspecified) came in with an IFI of 2.63%.
For `CCCC(C)Nc1nc(C)cc(N[C@@H](CC(C)C)C(=O)NC2CCCC2)n1` (stereo partly specified) the value was 4.76%; for `O=C(NCCCCN1CCC(c2ccc3c(c2OCCO)CCCC3)CC1)c1ccc(-c2ccc(C(F)(F)F)cc2)cc1`, 7.55%; for `CN(Cc1cccc(F)c1)C1CCN(c2cc(NC(=O)c3ccc(F)cc3)ccn2)CC1`, -0%.
`CC(C)c1sc(N2CCN(C)CC2)nc1C(=O)NCCc1ccc(Br)cc1` yielded an IFI of 6.12%.
Take `Cc1ccccc1C1CCN(C2CCC(NC(=O)c3cc(-c4ccccc4)oc3C)CC2)CC1` (stereo unspecified): the IFI came out at 10.5%.
For `CCN(CC)/C(=N/C(=N)NCc1ccc(Cl)cc1)NCCCCCCN/C(=N\C(=N)NCc1ccc(Cl)cc1)N(CC)CC` the value was 15.1%.
`CCCC(=O)Nc1ccc(OCCN(Cc2ccccc2OC(F)(F)F)c2ccc(C(F)(F)F)c(C#N)c2)cc1` had an IFI of -0%.
`COc1ccc2nc(-c3cc(-c4ccc(NC(=O)CN5CCOCC5)cc4)cnc3N)[nH]c2c1` showed an IFI of 10.5%.
In turn, `COc1ccc(CNC2CCN(C)CC2)cc1-c1ccc(S(=O)(=O)NCc2ccccc2)cc1` came in with an IFI of 11.4%.
The molecule `Oc1ccc2c(c1CNC1CCCCC1)CCCC2` returned an IFI of 0.71%.
In turn, `COc1cc(C(=O)N2CCC(CCN3CCC4(CC3)CN(S(C)(=O)=O)c3ccccc34)CC2Cc2ccc(Cl)c(Cl)c2)cc(OC)c1OC` (stereo unspecified) gave an IFI of 5.34%.
`CCn1c(-c2nonc2N)nc2c(-c3cccc(NC(=O)Nc4cccc(C#N)c4)c3)ncc(OCCCN)c21` yielded an IFI of 16.7%.
The molecule `O=C(Nc1cc(F)cc(F)c1)N1CCOC(CCN2CCC3(CCc4ccccc43)CC2)(c2ccc(Cl)c(Cl)c2)C1` (stereo unspecified) returned an IFI of 8.22%.
In turn, `CC(C)CNCc1cccc(-c2cccc(CN(CCCN3CCN(C)CC3)C(=O)Nc3ccccc3)c2)c1` registered an IFI of 3.65%.
`CC(=O)Oc1c(Cl)c(C)nc(C)c1-c1ccc(Oc2ccc(OC(F)(F)F)cc2)cc1` registered an IFI of 6.35%.
For `O=[N+]([O-])c1cccc(NC(=S)N2CCCN(Cc3ccc(F)cc3F)CC2)c1` the value was 2.24%; for `Fc1ccccc1-c1cc(Nc2ccncc2)nc(-c2cccnc2)n1`, 10.4%.
The same measure for `CN1CCCCC1CCc1cc(C(=O)Nc2ccc(-c3ccc(O)cc3)cc2)ccc1O` (stereo unspecified): 1.46%; for `Cc1cc(-c2nc3ccc(N4CCN(C)CC4)cc3[nH]2)nn1Cc1cc(Cl)ccc1OCC(C)C`: 17.1%.
Molecule `O=C(NCC1CC1)C1CCN(C(c2ccccc2)c2cc(F)cc(F)c2)CC1` (stereo unspecified) gave an IFI of 2.07%.
`CC(C)(C)c1ccc(NC(=O)c2cccc(CN3CCCN(Cc4cccc(Cl)c4)CC3)c2)cc1` showed an IFI of 7.86%.
For `CCOC(=O)C(C)(C)Oc1ccc(C(=C2CC(C)(C)CC(C)(C)C2)c2ccc(O)cc2)cc1` the value was 2.4%; for `O=C(Nc1ccc(Cl)cc1)Nc1ccc2nonc2c1`, 12.8%.
`NC(=O)c1cccc(C(=O)Nc2ccc(-c3cccc(-c4nc5cc(C(F)(F)F)ccc5[nH]4)c3)cc2)c1` had an IFI of 3.81%.
Molecule `CCCCSc1nc2c(c(=O)n1Cc1ccco1)C1(CCCCC1)Cc1ccccc1-2` came in with an IFI of 4.35%.
Molecule `Cc1cc(OCCCN2CCC(NS(=O)(=O)c3ccc(Cl)c(Cl)c3)CC2)c2ccccc2n1` yielded an IFI of 5.36%.
For `CC(=O)c1cccc(NC(=O)C2c3ccccc3C(=O)N(CC(C)C)C2c2cccs2)c1` (stereo unspecified) the value was 2.27%; for `Cc1cc(C(=O)CN2C(=O)NC(C)(c3ccc4ccccc4c3)C2=O)c(C)n1Cc1ccco1` (stereo unspecified), 3.64%.
For `Cc1cccc2nc(-c3cccc(-c4cccc(NC(=O)NCc5cccc(F)c5)c4)c3)[nH]c12` the value was 7.92%; for `CCn1c(C)cc(C=C2SC(=Nc3ccccc3)NC2=O)c1C`, 6.67%; for `COc1ccc2nccc([C@@H](O)CN3CCC(c4cc(-c5ccc(Cl)cc5)[nH]n4)CC3)c2n1`, 4.58%.
For `COc1cc(C(=O)N2CCOC(CCN3CCC(Cc4ccc(F)cc4)CC3)(c3ccc(Cl)c(Cl)c3)C2)cc(OC)c1OC` (stereo unspecified) the value was 9.4%; for `N#CCCN1CCN(Cc2cccc(-c3ccc(-c4nc5ccccc5[nH]4)s3)c2)CC1`, 1.41%.
As to `OC(CNc1ccnc(Nc2cccc(Cl)c2)n1)c1ccccc1C(F)(F)F` (stereo unspecified), the IFI was 20.4%.
`COc1ccc(S(=O)(=O)Nc2ccc(C(=O)NCc3ccc(C(F)(F)F)cc3)cc2)cc1N1CCN(CC2CC2)CC1` displayed an IFI of 20%.
In the case of `CC(C)COc1ccc(Cl)cc1Cc1nc(-c2nc3ccc(N4CCN(C)CC4)nc3[nH]2)cs1`, the IFI was 13.6%.
The molecule `CC(C)N1CCN(c2ccc(OCCCN3CCN(c4cccc(Cl)c4Cl)CC3)c(C(F)(F)F)c2)CC1` yielded an IFI of 17.1%.
The molecule `OC1CCCN(Cc2cccc(-c3ccc(-c4nc5cc(C(F)(F)F)ccc5[nH]4)cc3)c2)C1` (stereo unspecified) gave an IFI of 4.23%.
Molecule `OCc1ccc2nc3c(cc2c1)-c1cccc2cccc-3c12` gave an IFI of 2.94%.
For `CCCNCc1ccc(-c2ccc(CN(C(=O)c3nn(-c4ccccc4)nc3C)C(C)CN(C)C)cc2)nc1` (stereo unspecified) the value was 2.24%; for `CN(C)Cc1cc2c(O)c(Cc3ccccc3)ccc2o1`, 0.68%.
Regarding `CN1CCN(CCCN(Cc2ccc(-c3cccc(CNCc4ccc5c(c4)OCO5)c3)cc2)C(=O)NC2CCCCC2)CC1`, the IFI amounted to 9.7%.
`Cc1cc(Nc2ccccc2)nc(Nc2ccccc2C)n1`: the IFI was 2.13%.
For `Cc1cc(N[C@@H](Cc2ccccc2)C(=O)NC2CCCC2)nc(NCC2CCCCC2)n1`, the IFI worked out at 26.2%.
The same measure for `COc1ccc(CCNCCCCCCNCCc2cccc([N+](=O)[O-])c2)cc1OC`: -0%; for `Cc1ccc(Nc2ccnc3cc(-c4nccs4)ccc23)cc1C(O)c1ccccc1` (stereo unspecified): 7.04%.
In turn, `c1cc(-c2ccc(CN3CCN(c4ccncc4)CC3)cc2)cc(-c2nc3ccccc3[nH]2)c1` came in with an IFI of 7.62%.
Molecule `Cc1c(Cc2ccc(F)cc2)c(Cl)nc2nc(N)nc(N)c12` returned an IFI of 2.92%.
For `N#Cc1cccc(C(O)C2CN(CCC3CCCCC3)CCC2(O)c2ccccc2)c1` (stereo unspecified), the IFI came out at 1.67%.
The molecule `CC(C)CCN1CCCN(Cc2ccc(C(=O)Nc3ccc(C(C)(C)C)cc3)cc2)CC1` had an IFI of 12.5%.
Take `Cc1noc(C)c1-c1ccc2c(Nc3ccccc3C(C)(C)C)c(C(=O)NCc3ccccc3)cnc2c1`: the IFI came to 13.8%.
Consider `OC(COCc1ccc(-c2ccccc2)cc1)CN1CCCCC1` (stereo unspecified), for which the IFI was -0%.
Turning to `Cc1ccc(OCCCON2C(=N)N=C(N)NC2(C)C)cc1C`, the IFI was 3.57%.
With `CN(C)CC(=O)Nc1ccc(Nc2nccc(NCC(O)c3ccccc3)n2)cc1` (stereo unspecified), the IFI worked out at 2.94%.
`COc1cc(CNCCC(C)C)ccc1OCc1cccc(COc2ccc(CNCCC(C)C)cc2OC)c1` displayed an IFI of 12.1%.
The molecule `CC(C)(C)c1ccc(NC(=O)c2ccc(CN3CCCN(Cc4cccc(C#N)c4)CC3)cc2)cc1` had an IFI of 14.5%.
As for `CCCCCCN1CCC(NCc2cccc(-n3ccnc3)c2)CC1`, the IFI was found to be 0.68%.
With `Nc1nc(N)c2c(ccc3c2cnn3S(=O)(=O)N2CCCC2)n1`, the IFI is 3.45%.
The same measure for `Nc1c2ccccc2nc2cc(C(F)(F)F)ccc12`: 1.46%; for `Clc1cccc(-c2nc(Nc3ccnc(-c4ccc(CN5CCOCC5)cc4)c3)c3ccccc3n2)c1`: 3.64%; for `Cc1nc2nc(N)nc(N)c2c(C)c1Cc1ccc(C(F)(F)F)cc1`: 1.46%.
For `Cc1ccccc1C1CCN(C2CCC(NC(=O)c3cncc(-c4ccccc4)c3)CC2)CC1` (stereo unspecified) the value was 3.51%; for `Cc1ccc(C)c2c1[nH]c1ccc(C3=NCCN3)cc12`, 5.71%; for `N=C(N)NN=CC(=O)Nc1ccc(Br)cc1`, 2.27%.
Molecule `COc1cccc(-c2ccc3c(-c4cccc(NC(C)=O)c4)cnc(N)c3c2)c1` registered an IFI of 15%.
Regarding `Cc1oc(-c2ccccc2)nc1CCOc1ccc(C[C@H](Nc2ccccc2C(=O)c2ccccc2)C(=O)NCc2ccccn2)cc1`, the IFI was determined as 0.76%.
Molecule `C=Cc1ccccc1C1(O)CCN(CCCCNC(=O)c2ccc(-c3ccc(C#N)cc3)cc2)CC1` came in with an IFI of 6.92%.
Molecule `Cc1ccc(Nc2nc(C)cc(Nc3cccc(C#N)c3)n2)cc1` came in with an IFI of 6.35%.
The same measure for `O=c1ccc2ccc(F)c3c2n1CC3CN1CCC(NCc2cccc(-c3ccccc3F)c2)CC1` (stereo unspecified): 1.82%.
Molecule `CC(=O)c1ccc(NC(=O)NNC(=O)c2ccc(CCN3CCC(c4nc(COCC(F)(F)F)c(-c5ccc(F)cc5)o4)CC3)cc2)cc1` had an IFI of 3.6%.
On to `CCN(CC)CCN(Cc1ccc(-c2ccc(C(F)(F)F)cc2)cc1)C(=O)Cn1c(CCc2ccc(F)c(F)c2)cc(=O)c2ccccc21`, for which the IFI was 2.16%.
Molecule `O=C(c1cccc(-c2cccc(-c3nc4ccccc4[nH]3)c2)c1)N1CCCCC1CN1CCC(O)C1` (stereo unspecified) gave an IFI of 0.97%.
The same measure for `CC(=O)Nc1csc(-c2cnc(/C=C(\C)C[C@@H]3OC[C@H](C[C@@H]4O[C@H]4[C@@H](C)[C@H](C)O)[C@@H](O)[C@H]3O)o2)c1`: 0.74%.
